Measured values reported in patent US20250043025A1 (CALICO LIFE SCIENCES, published 2025).
Numbering of substitutions follows the chain as printed.

B1: anti-PAPP-A antibody 1 (Ab1) (antibody, human IgG1, kappa, L234A L235A)
heavy: EVQLVESGGGVVQPGRSLRLSCAASGFTFSSYAMHWVRQAPGKGLEWVAVISYDGSIKYYAD[left out - about 20 residues]MNSLRAEDTAVYYCARHNRIYSWGWHTFDIWGQGTLVTVSSASTKGPSVFPLAPSSKSTSGGTAALGCLVKDYFPEPVTVSWNSGALTSGVHTFPAVLQSSGLYSLSSVVTVPSSSLGTQTYICNVNHKPSNTKVDKKV[left out - human IgG1 Fc with changes]
light: IQMTQSPSSLSASVGDRVTITCRASQDISIYLNWYQQKPGKAPKLLIYGASSLQSGVPSRFSGSGSGTDFTLTISSLQPEDFATYYCQQADAGPWKFGGGTKVEIKRTVAAPSVFIFPPSDEQLKSGTASVVCLLNNFYPREAKVQWKVDNALQSGNSQESVTEQDSKDSTYSLSSTLTLSKADYEKHKVYACEVTHQGLSSPVTKSFNRGEC
notes: Fully human IgG expressed in EXPI293 cells
B2: anti-PAPP-A antibody 2 (Ab2) (antibody, human IgG1, kappa, L234A L235A)
heavy: EVQLVESGGGVVQPGRSLRLSCAASGFTFSSYAMHWVRQAPGKGLEWVAVISYDGSIKYYAD[left out - about 20 residues]MNSLRAEDTAVYYCARHERIPPWGFHTFDIWGQGTLVTVSSASTKGPSVFPLAPSSKSTSGGTAALGCLVKDYFPEPVTVSWNSGALTSGVHTFPAVLQSSGLYSLSSVVTVPSSSLGTQTYICNVNHKPSNTKVDKKV[left out - human IgG1 Fc with changes]
light: DIQMTQSPSSLSASVGDRVTITCRASQGISIYLNWYQQKPGKAPKLLIYGASSLQSGVPSRFSGSGSGTDFTLTISSLQPEDFATYYCQQSDGTPWTFGGGTKVEIKRTVAAPSVFIFPPSDEQLKSGTASVVCLLNNFYPREAKVQWKVDNALQSGNSQESVTEQDSKDSTYSLSSTLTLSKADYEKHKVYACEVTHQGLSSPVTKSFNRGEC
notes: Fully human IgG
B3: anti-PAPP-A antibody 3 (Ab3) (antibody, human IgG1, kappa, L234A L235A)
heavy: EVQLVESGGGVVQPGRSLRLSCAASGFTFSSYGMHWVRQAPGKGLEWVAVISYDGRNKYYAD[left out - about 20 residues]MNSLRAEDTAVYYCARYKPMPFDVWGQGTLVTVSSASTKGPSVFPLAPSSKSTSGGTAALGCLVKDYFPEPVTVSWNSGALTSGVHTFPAVLQSSGLYSLSSVVTVPSSSLGTQTYICNVNHKPSNTKVDKKV[left out - human IgG1 Fc with changes]
light: B2 light with G28S, I31S, G50E, S53I, Q89G, D92Y, G93Y, W96F, T97P
notes: Fully human IgG
B4: anti-PAPP-A antibody 6 (Ab6) (antibody, human IgG1, kappa, L234A L235A)
heavy: EVQLLESGGGLVQPGGSLRLSCAASGFTFSSYAMSWVRQAPGKGLEWVSAISMTVGRTYYADSVKGRFTISRDNSKNTLYLQMNSLRAEDTAVYYCARVWGGVRFDVWGQGTLVTVSSASTKGPSVFPLAPSSKSTSGGTAALGCLVKDYFPEPVTVSWNSGALTSGVHTFPAVLQSSGLYSLSSVVTVPSSSLGTQTYICNVNHKPSNTKVDKKV[left out - human IgG1 Fc with changes]
light: B2 light with G28S, I31T, G50V, S53I, D92S, G93S
notes: Fully human IgG
B5: anti-PAPP-A antibody 5 (Ab5) (antibody, human IgG1, kappa, L234A L235A)
heavy: EVQLVESGGGVVQPGRSLRLSCAASGFTFSSYGMHWVRQAPGKGLEWVAVIYYDGRRKYYADSVKGRFTISRDNSKNTLYLQMNSLRAEDTAVYYCARADMHRFDVWGQGTLVTVSSASTKGPSVFPLAPSSKSTSGGTAALGCLVKDYFPEPVTVSWNSGALTSGVHTFPAVLQSSGLYSLSSVVTVPSSSLGTQTYICNVNHKPSNTKVDKKV[left out - human IgG1 Fc with changes]
light: B2 light with G28D, S30I, I31S, G50V, D92Y, G93S, T94P, W96Y
notes: Fully human IgG
B6: anti-PAPP-A antibody 4 (Ab4) (antibody, human IgG1, kappa, L234A L235A)
heavy: EVQLVESGGGVVQPGRSLRLSCAASGFAFSTYGMHWVRQAPGKGLEWVAVIRYDGQEKYYAD[left out - about 20 residues]MNSLRAEDTAVYYCARYKPMPFDVWGQGTLVTVSSASTKGPSVFPLAPSSKSTSGGTAALGCLVKDYFPEPVTVSWNSGALTSGVHTFPAVLQSSGLYSLSSVVTVPSSSLGTQTYICNVNHKPSNTKVDKKV[left out - human IgG1 Fc with changes]
light: B2 light with G28S, I31R, G50A, S53I, D92H, G93P, W96F
notes: Fully human IgG

Experiments:
[1] = target: PAPP-A (species not stated for this assay) (Homo sapiens (Human), UniProt Q13219 82-1627); test: cell-based or functional assay
Chain of UniProt Q13219 (Q13219 82-1627 limits assumed): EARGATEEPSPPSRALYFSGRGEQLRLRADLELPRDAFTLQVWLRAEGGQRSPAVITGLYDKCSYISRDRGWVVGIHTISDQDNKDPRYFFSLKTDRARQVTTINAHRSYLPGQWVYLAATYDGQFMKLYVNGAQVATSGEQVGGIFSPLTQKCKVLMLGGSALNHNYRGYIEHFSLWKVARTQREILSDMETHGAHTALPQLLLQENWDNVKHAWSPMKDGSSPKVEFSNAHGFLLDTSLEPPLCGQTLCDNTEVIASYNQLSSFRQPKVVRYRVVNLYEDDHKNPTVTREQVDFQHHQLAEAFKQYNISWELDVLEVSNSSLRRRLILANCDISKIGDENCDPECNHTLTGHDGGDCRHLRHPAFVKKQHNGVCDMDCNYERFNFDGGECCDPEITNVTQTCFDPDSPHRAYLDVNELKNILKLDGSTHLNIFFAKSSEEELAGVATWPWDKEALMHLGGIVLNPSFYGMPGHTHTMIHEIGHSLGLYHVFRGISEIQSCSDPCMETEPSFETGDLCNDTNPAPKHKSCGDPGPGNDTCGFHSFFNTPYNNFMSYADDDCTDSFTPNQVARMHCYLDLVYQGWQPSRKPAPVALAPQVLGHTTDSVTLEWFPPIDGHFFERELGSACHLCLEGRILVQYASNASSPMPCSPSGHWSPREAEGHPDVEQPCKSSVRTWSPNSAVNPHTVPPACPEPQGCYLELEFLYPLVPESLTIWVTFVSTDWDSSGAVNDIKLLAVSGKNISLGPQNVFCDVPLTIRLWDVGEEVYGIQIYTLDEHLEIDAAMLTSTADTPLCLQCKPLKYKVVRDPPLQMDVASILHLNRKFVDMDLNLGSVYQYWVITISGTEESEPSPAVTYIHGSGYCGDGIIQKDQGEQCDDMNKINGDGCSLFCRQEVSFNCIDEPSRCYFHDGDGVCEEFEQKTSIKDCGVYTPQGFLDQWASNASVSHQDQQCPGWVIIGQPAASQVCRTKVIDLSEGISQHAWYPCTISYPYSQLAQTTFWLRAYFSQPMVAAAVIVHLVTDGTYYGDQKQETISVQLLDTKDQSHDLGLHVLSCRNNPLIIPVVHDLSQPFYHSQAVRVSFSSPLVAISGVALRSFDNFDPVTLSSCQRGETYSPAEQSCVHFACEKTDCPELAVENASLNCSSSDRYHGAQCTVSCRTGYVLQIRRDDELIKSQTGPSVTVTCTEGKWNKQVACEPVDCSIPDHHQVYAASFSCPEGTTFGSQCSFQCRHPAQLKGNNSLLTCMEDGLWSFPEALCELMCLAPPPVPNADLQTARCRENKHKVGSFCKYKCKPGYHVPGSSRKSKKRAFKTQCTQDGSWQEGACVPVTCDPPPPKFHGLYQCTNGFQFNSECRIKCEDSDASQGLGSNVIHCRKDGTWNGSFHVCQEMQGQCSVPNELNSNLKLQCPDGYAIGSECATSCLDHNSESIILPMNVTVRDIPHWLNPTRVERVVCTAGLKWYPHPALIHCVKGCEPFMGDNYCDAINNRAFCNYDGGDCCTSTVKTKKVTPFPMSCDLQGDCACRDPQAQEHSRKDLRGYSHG

[2] = target: NHP (cynomolgus monkey) PAPP-A (cynomolgus monkey (NHP), UniProt A0A2K5WE98 87-1619); test: SPR (Biacore), antibody captured on goat anti-human IgG Fc, PAPP-A as analyte
Chain of UniProt A0A2K5WE98 (A0A2K5WE98 entry or part of it): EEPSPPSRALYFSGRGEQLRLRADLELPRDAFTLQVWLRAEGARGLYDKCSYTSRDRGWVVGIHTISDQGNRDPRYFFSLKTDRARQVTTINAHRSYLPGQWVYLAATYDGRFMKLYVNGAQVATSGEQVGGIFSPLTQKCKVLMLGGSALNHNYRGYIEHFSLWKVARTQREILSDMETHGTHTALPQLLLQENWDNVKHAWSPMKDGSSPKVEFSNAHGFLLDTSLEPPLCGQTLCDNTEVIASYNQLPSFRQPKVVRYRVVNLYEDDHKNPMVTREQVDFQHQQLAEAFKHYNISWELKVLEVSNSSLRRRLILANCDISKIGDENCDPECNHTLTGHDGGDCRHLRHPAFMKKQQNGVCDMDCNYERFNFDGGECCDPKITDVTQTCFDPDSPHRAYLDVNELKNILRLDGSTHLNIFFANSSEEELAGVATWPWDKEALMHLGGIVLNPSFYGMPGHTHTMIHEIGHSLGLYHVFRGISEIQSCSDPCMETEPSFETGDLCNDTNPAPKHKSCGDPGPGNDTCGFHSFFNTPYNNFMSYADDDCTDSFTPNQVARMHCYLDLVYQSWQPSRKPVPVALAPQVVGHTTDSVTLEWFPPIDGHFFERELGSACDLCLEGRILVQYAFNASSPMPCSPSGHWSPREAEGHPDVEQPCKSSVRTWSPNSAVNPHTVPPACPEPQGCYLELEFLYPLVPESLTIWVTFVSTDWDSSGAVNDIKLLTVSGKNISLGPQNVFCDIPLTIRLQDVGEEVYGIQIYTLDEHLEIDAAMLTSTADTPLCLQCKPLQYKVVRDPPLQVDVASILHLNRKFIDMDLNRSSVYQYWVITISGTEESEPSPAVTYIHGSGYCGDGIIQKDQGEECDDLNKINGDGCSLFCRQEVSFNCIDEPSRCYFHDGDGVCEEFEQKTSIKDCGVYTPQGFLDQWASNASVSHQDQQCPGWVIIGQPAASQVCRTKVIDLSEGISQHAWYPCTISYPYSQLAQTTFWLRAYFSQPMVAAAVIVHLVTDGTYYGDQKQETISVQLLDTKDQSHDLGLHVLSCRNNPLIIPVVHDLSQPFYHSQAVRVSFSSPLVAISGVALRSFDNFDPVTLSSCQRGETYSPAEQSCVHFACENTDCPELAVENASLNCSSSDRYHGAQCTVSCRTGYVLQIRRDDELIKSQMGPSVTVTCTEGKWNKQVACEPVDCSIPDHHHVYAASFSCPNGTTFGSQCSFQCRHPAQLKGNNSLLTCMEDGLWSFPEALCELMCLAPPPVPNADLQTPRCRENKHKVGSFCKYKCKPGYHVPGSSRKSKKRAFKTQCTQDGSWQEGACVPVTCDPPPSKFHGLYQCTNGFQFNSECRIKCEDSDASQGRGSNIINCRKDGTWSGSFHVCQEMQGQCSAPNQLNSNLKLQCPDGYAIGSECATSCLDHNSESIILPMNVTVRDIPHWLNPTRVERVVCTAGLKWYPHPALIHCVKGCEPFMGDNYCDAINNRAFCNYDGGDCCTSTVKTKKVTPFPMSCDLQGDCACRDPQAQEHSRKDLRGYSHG
Text: (§1) A goat antibody specific to the Fc region of human IgG (Thermo Fisher Scientific, Waltham, MA, USA) was used to capture the monoclonal antibodies. The Fc specific antibody was covalently immobilized on carboxymethyl dextran matrix of the Biacore™ CM5 biosensor chip (Cytiva Life Sciences, Marlborough, MA, USA) via amino groups using an amine coupling kit (Cytiva) and the immobilization wizard option of the Biacore™ (Cytiva) instrument's controlling software. Carboxyl groups of the dextran matrix on the chip were activated with 100 mM N-hydroxysuccinimide and 400 mM 1-ethyl-3-(3-dimethylaminopropyl) carbodiimide hydrochloride. Goat anti-human IgG Fc (25 μg/mL; Thermo Fisher), diluted in 10 mM sodium acetate, pH 4.5, was injected across the activated surface. Once the level of binding response reached the targeted value of 10000 Resonance Units (RU), unreacted groups were deactivated by injection of 1 M ethanolamine. Approximately 10,000 RU of goat anti-human IgG Fc was immobilized on the chip surface of the flow cells, while a modified control matrix surface with similarly conjugated goat anti-human IgG Fc antibody was used as a reference surface.
(§2) Anti-PAPP-A monoclonal antibodies were diluted in the running buffer (HEPES buffered saline; HBS-P+, Cytiva) plus 0.1 mg/mL bovine serum albumin) to the concentration of 1 μg/mL were injected over the goat anti-human IgG Fc surface at a flow rate of 50 μL/minute for 25 seconds to achieve capture level of ˜100 to 110 RU. The net difference in the baseline signal and the signal after the completion of the antibody injection was taken to represent the amount of bound monoclonal antibody.
(§3) Each antigen binding experiment consisted of antigen association and antigen dissociation phases. Aliquots of recombinant PAPP-A proteins were injected at different concentrations at a flow rate of 50 μL/minute, for five minutes over the captured monoclonal antibodies and the reference surface to determine association rates.

mouse PAPP-A = target: T1, mouse PAPP-A (mouse, UniProt Q8R4K8 82-1624, limits assumed); test: as above
Chain of mouse PAPP-A (Q8R4K8 82-1624 limits assumed): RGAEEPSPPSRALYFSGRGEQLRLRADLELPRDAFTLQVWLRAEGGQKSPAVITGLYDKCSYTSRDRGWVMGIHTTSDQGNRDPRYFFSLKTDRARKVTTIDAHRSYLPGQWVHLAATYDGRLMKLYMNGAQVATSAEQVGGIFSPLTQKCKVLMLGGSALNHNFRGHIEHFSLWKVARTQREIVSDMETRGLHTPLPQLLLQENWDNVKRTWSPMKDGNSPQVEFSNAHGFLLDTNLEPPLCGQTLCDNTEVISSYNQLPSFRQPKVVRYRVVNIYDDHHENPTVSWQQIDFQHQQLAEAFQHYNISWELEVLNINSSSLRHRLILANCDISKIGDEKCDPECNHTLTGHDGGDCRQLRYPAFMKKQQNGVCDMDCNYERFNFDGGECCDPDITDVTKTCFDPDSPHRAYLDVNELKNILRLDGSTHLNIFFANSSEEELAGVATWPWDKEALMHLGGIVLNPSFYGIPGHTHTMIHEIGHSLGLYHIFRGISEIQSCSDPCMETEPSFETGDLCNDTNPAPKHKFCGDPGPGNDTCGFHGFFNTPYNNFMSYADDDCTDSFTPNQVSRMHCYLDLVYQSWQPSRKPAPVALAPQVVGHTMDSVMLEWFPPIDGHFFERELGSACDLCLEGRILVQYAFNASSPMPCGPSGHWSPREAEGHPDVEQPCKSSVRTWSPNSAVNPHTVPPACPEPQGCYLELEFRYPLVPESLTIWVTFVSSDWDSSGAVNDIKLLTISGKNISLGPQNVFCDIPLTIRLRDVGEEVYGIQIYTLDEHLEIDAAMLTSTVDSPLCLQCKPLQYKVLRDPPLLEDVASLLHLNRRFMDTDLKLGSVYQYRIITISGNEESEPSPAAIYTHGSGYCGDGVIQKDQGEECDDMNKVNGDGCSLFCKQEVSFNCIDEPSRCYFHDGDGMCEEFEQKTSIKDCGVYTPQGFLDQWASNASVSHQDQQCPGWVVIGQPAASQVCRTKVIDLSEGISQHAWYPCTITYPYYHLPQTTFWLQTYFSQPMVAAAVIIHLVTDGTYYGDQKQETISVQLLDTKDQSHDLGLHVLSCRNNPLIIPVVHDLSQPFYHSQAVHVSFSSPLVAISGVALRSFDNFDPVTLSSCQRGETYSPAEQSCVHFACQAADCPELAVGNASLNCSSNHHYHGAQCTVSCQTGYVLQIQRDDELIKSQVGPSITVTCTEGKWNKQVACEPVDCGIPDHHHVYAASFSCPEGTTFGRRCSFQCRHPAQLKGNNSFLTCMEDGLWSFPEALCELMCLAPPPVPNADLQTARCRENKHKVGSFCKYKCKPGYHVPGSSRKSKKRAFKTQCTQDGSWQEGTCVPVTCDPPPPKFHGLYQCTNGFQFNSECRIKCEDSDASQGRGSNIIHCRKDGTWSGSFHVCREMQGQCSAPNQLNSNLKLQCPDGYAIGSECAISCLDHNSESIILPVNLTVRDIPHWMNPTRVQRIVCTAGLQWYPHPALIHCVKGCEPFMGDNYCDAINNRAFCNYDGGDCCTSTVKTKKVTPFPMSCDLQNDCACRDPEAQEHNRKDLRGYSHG
T1 construct: Printed as 'full length'
Text: as §1, §2, §3

Row | Binder | inhibition of PAPP-A proteolytic activity (IC50) against IGFBP-2, western blotting [1] [nM] | inhibition of PAPP-A proteolytic activity (IC50) against IGFBP-4, western blotting [1] [nM] | inhibition of PAPP-A proteolytic activity (IC50) against IGFBP-5, western blotting [1] [nM] | Kd [2] [nM] | Kd (mouse PAPP-A) [nM]
1 | B1 | 0.37 | 0.1 | 0.07 | 0.017 | < 0.0029
2 | B2 | 0.34 | 0.4 | 0.04 | 0.024 | 0.091
3 | B3 | 0.26 | 0.1 | 0.18 | 0.0072 | 0.12
4 | B4 | 0.18 | 0.12 | 0.09 | < 0.001 | < 0.003
5 | B5 | 0.11 | 1.88 | 3.02 | 0.46 | 0.18
6 | B6 | 0.31 | 0.1 | 0.31 | 0.035 | 0.86
